Changes are numbered by the printed parent chain; changes in the protein carry UniProt numbers. The list shows a part of the results.

The source of these data is PMC9911399, “Two distinct binding modes provide the RNA-binding protein RbFox with extraordinary sequence specificity”.

First the molecules themselves.
T1: RBFOX1 RRM RbFoxmut (Fox-RRM*) (Homo sapiens, UniProt Q9NWB1 109-208, R118D;E147R;N151S;E152T)
T1 sequence: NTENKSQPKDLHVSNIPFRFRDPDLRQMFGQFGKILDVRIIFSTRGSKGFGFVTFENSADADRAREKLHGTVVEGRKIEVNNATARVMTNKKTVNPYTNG

B1: CCUCAAU (DNA:RNA)
RNA: GGGAGACCGGAAUUCAGAUUGUCCCCUCAAUUUAAAUCCCGUCGUAGCCACCA
DNA 1: CAATCTGAATTCCGGTCTCCC
DNA 2: TGGTGGCTACGACGGGATT
B2: CCUAGUA (DNA:RNA)
RNA: B1 RNA with C28A, A29G, A30U, U31A
DNA 1: CAATCTGAATTCCGGTCTCCC
DNA 2: TGGTGGCTACGACGGGATT
B3: AUCAUUA (DNA:RNA)
RNA: GGGAGACCGGAAUUCAGAUUGUCCAUCAUUAUUAAAUCCCGUCGUAGCCACCA
DNA 1: CAATCTGAATTCCGGTCTCCC
DNA 2: TGGTGGCTACGACGGGATT
B4: CGUCGGC (DNA:RNA)
RNA: B1 RNA with C26G, A29G, A30G, U31C
DNA 1: CAATCTGAATTCCGGTCTCCC
DNA 2: TGGTGGCTACGACGGGATT
B5: CAGAGGU (DNA:RNA)
RNA: B1 RNA with C26A, U27G, C28A, A29G, A30G
DNA 1: CAATCTGAATTCCGGTCTCCC
DNA 2: TGGTGGCTACGACGGGATT
B6: AGGAUGC (DNA:RNA)
RNA: B3 RNA with U26G, C27G, U30G, A31C
DNA 1: CAATCTGAATTCCGGTCTCCC
DNA 2: TGGTGGCTACGACGGGATT
B7: UUCACGU (DNA:RNA)
RNA: B3 RNA with A25U, U29C, U30G, A31U
DNA 1: CAATCTGAATTCCGGTCTCCC
DNA 2: TGGTGGCTACGACGGGATT
B8: GGGCAAC (DNA:RNA)
RNA: B1 RNA with C25G, C26G, U27G, U31C
DNA 1: CAATCTGAATTCCGGTCTCCC
DNA 2: TGGTGGCTACGACGGGATT
B9: CGCAAAC (DNA:RNA)
RNA: B1 RNA with C26G, U27C, C28A, U31C
DNA 1: CAATCTGAATTCCGGTCTCCC
DNA 2: TGGTGGCTACGACGGGATT

The assay deals with T1, RBFOX1 RRM RbFoxmut (Fox-RRM*). Nature of the assay: EMSA; HiTS-Eq, 1 nM pool, 10 min; buffer printed only for the single-RNA assays: 10 mM Tris pH 7.5, 150 mM NaCl, 3.4 mM EDTA, 0.001% NP-40, 30 C. The following applies: tags: His6 N-terminal (pET28a); label: 5' 32P. The gist of the method: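 These values rest on relative association constants, computed from read-count changes of each RNA species versus the control reaction and normalised to the cognate motif. Reads came from free RNA recovered by 8% native PAGE after purified RbFox RRM (wild type or mutant) at increasing concentrations was equilibrated for 10 min in 50 µL with 1 nM of a 5′-radiolabelled pool with 7 randomized nucleotides and DNA-annealed flanks.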
In general terms: A gel shift assay detects complexes by their altered migration in electrophoresis.
On to B1, for which the binding signal is 0.0549 KA relative to UGCAUGU.

With B2, the binding signal is 0.128 KA relative to UGCAUGU.

B3: the binding signal was 0.154 KA relative to UGCAUGU.

Take B4: the binding signal is 0.118 KA relative to UGCAUGU.

With B5, the binding signal is 0.113 KA relative to UGCAUGU.

For B6, the binding signal is 0.203 KA relative to UGCAUGU.

In the case of B7, the binding signal was 0.0938 KA relative to UGCAUGU.

B8: the binding signal was 0.063 KA relative to UGCAUGU.

B9: the binding signal is 0.0555 KA relative to UGCAUGU.
